A value given as a limit tells only on which side of the number the result lay.

For the assay, the target named is Recombinant heterodimeric HCV NS3/NS4A protease (strain 1a) (Hepatitis C virus genotype 1a, UniProt P27958). The assay can be described thus: Spectrophotometric assay for HCV protease inhibitory activity (chromogenic ester substrates). In kind it is biochemical. Conditions: Table 3, Esters; read-out: Ki* Range.
The term Ki denotes a measure of affinity in units of concentration, obtained from inhibition or displacement. For the molecule `C=CCOC(=O)[C@H](CC(C)(C)C)NC(=O)N[C@H](C(=O)N1C[C@H]2[C@@H]([C@H]1C(=O)NC(CC1CC1)C(=O)C(N)=O)C2(C)C)C(C)(C)C` (stereo partly shown) [compound 4463], the Ki is under 0.075 µM.
`CC(C)[C@@H](NC(=O)N[C@H](C(=O)N1C[C@H]2[C@@H]([C@H]1C(=O)NC(CC1CCC1)C(=O)C(N)=O)C2(C)C)C(C)(C)C)C(=O)OCc1ccccc1` (stereo partly shown) [compound 4464]: the Ki was under 0.075 µM.
Turning to `CC(C)(C)[C@H](NC(=O)NC1(C(=O)OCc2ccc(F)cc2)CCCCC1)C(=O)N1C[C@H]2[C@@H]([C@H]1C(=O)NC(CC1CC1)C(=O)C(N)=O)C2(C)C` (stereo partly shown) [compound 4465], the Ki is under 0.075 µM.
Then `CC(C)(C)[C@H](NC(=O)N[C@H](C(=O)N1C[C@H]2[C@@H]([C@H]1C(=O)NC(CC1CC1)C(=O)C(N)=O)C2(C)C)C(C)(C)C)C(=O)OC1CCCC1` (stereo partly shown) [compound 4466], with under 0.075 µM.
`C=CCNC(=O)C(=O)C(CCC)NC(=O)[C@@H]1[C@@H]2[C@H](CN1C(=O)[C@@H](NC(=O)N[C@H](C(=O)OCC1CC1)C(C)(C)C)C(C)(C)C)C2(C)C` (stereo partly shown) [compound 4467]: the Ki was under 0.075 µM.
`C=CCNC(=O)C(=O)C(CC1CC1)NC(=O)[C@@H]1[C@@H]2[C@H](CN1C(=O)[C@@H](NC(=O)N[C@H](C(=O)OC(C)(C)C)C(C)C)C(C)(C)C)C2(C)C` (stereo partly shown) [compound 4468]: the Ki is under 0.075 µM.
Take `CC1(C)[C@@H]2[C@@H](C(=O)NC(CC3CC3)C(=O)C(N)=O)N(C(=O)[C@@H](NC(=O)NC3(C(=O)OCc4ccccc4)CCCC3)C3CCCCC3)C[C@@H]21` (stereo partly shown) [compound 4470]: the Ki was under 0.075 µM.
For `CC(C)(C)OC(=O)[C@@H](NC(=O)N[C@H](C(=O)N1C[C@@H]2OC(C)(C)C[C@@H]2[C@H]1C(=O)NC(CC1CC1)C(=O)C(N)=O)C1(C)CCCCC1)C(C)(C)C` (stereo partly shown) [compound 4472], the inhibition constant (Ki) is under 0.075 µM.
Regarding `CC(C)(C)OC(=O)CCNC(=O)C(=O)C(CC1CC1)NC(=O)[C@@H]1[C@@H]2[C@H](CN1C(=O)[C@@H](NC(=O)N[C@H](C(=O)OCC1CC1)C1CC1)C(C)(C)C)C2(C)C` (stereo partly shown) [compound 4473], the inhibitory constant (Ki) is under 0.075 µM.
Then `C=CCNC(=O)C(=O)C(CCC)NC(=O)[C@@H]1[C@@H]2[C@H](CN1C(=O)[C@@H](NC(=O)N[C@H](C(=O)OCC=C)C(C)C)C(C)(C)C)C2(C)C` (stereo partly shown) [compound 4474], with under 0.075 µM.
For the molecule `C[C@@H]1CCCC1OC(=O)[C@@H](NC(=O)N[C@H](C(=O)N1C[C@H]2[C@@H]([C@H]1C(=O)NC(CC1CCC1)C(=O)C(N)=O)C2(C)C)C(C)(C)C)C(C)(C)C` (stereo partly shown) [compound 4475], the inhibition constant (Ki) is under 0.075 µM.
`CC(C)(C)[C@H](NC(=O)NC1(C(=O)OCc2ccoc2)CCCCC1)C(=O)N1C[C@H]2[C@@H]([C@H]1C(=O)NC(CC1CCC1)C(=O)C(N)=O)C2(C)C` (stereo partly shown) [compound 4476]: the Ki is under 0.075 µM.
In the case of `CC(C)(C)[C@H](NC(=O)NC1(C(=O)OCc2ccccc2)CC2CCC1C2)C(=O)N1C[C@H]2[C@@H]([C@H]1C(=O)NC(CC1CC1)C(=O)C(N)=O)C2(C)C` (stereo partly shown) [compound 4477], the Ki is under 0.075 µM.
In the case of `C=CCNC(=O)C(=O)C(CC1CC1)NC(=O)[C@@H]1[C@@H]2[C@H](CN1C(=O)[C@@H](NC(=O)N[C@H](C(=O)OC(C)(C)C)C(C)(C)C)C(C)(C)C)C2(C)C` (stereo partly shown) [compound 4478], the inhibition constant Ki is under 0.075 µM.
With `C=CCNC(=O)C(=O)C(CCC(F)(F)F)NC(=O)[C@@H]1[C@@H]2[C@H](CN1C(=O)[C@@H](NC(=O)N[C@H](C(=O)OC(C)(C)C)C(C)C)C(C)(C)C)C2(C)C` (stereo partly shown) [compound 4479] the figure was under 0.075 µM; with `C=CCNC(=O)C(=O)C(CCC)NC(=O)[C@@H]1[C@@H]2[C@H](CN1C(=O)[C@@H](NC(=O)N[C@H](C(=O)OC(C)(C)C)C(C)(C)C)C1Cc3ccccc3C1)C2(C)C` (stereo partly shown) [compound 4480], under 0.075 µM; with `C=CCNC(=O)C(=O)C(CCC)NC(=O)[C@@H]1[C@@H]2[C@H](CN1C(=O)[C@@H](NC(=O)N[C@H](C(=O)OCC1CC1)C1CCC1)C(C)(C)C)C2(C)C` (stereo partly shown) [compound 4481], under 0.075 µM.
For `COc1ccc(COC(=O)C2(NC(=O)N[C@H](C(=O)N3C[C@H]4[C@@H]([C@H]3C(=O)NC(CC3CCC3)C(=O)C(N)=O)C4(C)C)C(C)(C)C)CCCCC2)cc1` (stereo partly shown) [compound 4482], the inhibition constant Ki was under 0.075 µM.
Take `C=CCNC(=O)C(=O)C(CCCC)NC(=O)[C@@H]1[C@@H]2[C@H](CN1C(=O)[C@@H](NC(=O)N[C@H](C(=O)OC(C)(C)C)C(C)(C)C)C(C)(C)C)C2(C)C` (stereo partly shown) [compound 4483]: the inhibition constant Ki is under 0.075 µM.
In the case of `CC(C)[C@H](NC(=O)N[C@H](C(=O)N1C[C@H]2[C@@H]([C@H]1C(=O)N[C@@H](CC1CC1)C(=O)C(=O)NCCC(=O)OC(C)(C)C)C2(C)C)C(C)(C)C)C(=O)OCc1ccccc1` [compound 4484], the inhibition constant Ki was under 0.075 µM.
For the molecule `CCCCC(NC(=O)[C@@H]1[C@@H]2[C@H](CN1C(=O)[C@@H](NC(=O)N[C@H](C(=O)OC(C)(C)C)C(C)(C)C)C1CCCCC1)C2(C)C)C(=O)C(=O)NCC` (stereo partly shown) [compound 4485], the Ki was under 0.075 µM.
On to `C=CCNC(=O)C(=O)C(CCC)NC(=O)[C@@H]1[C@@H]2[C@H](CN1C(=O)[C@@H](NC(=O)N[C@H](C(=O)OCc1ccccc1)C1(C(F)(F)F)CC1)C(C)(C)C)C2(C)C` (stereo partly shown) [compound 4487], for which the Ki was under 0.075 µM.
With `CC(C)(C)[C@H](NC(=O)NC1(C(=O)OCc2ccccc2)CCCCC1)C(=O)N1C[C@H]2[C@@H]([C@H]1C(=O)NC(CC1CC1)C(=O)C(N)=O)C2(C)C` (stereo partly shown) [compound 4488], the inhibition constant (Ki) is under 0.075 µM.
For the molecule `CNC(=O)C(=O)C(CC1CC1)NC(=O)[C@@H]1[C@@H]2[C@H](CN1C(=O)[C@@H](NC(=O)N[C@H](C(=O)OC(C)(C)C)C(C)(C)C)C(C)(C)C)C2(C)C` (stereo partly shown) [compound 4489], the Ki is under 0.075 µM.
In the case of `CC(C)[C@H](NC(=O)N[C@H](C(=O)N1C[C@H]2[C@@H]([C@H]1C(=O)NC(CC1CCC1)C(=O)C(N)=O)C2(C)C)C(C)(C)C)C(=O)OC1Cc2ccccc2C1` (stereo partly shown) [compound 4490], the Ki is under 0.075 µM.
For the molecule `CC(C)[C@](C)(NC(=O)N[C@H](C(=O)N1C[C@H]2[C@@H]([C@H]1C(=O)NC(CC1CCC1)C(=O)C(N)=O)C2(C)C)C(C)(C)C)C(=O)OCc1ccccc1` (stereo partly shown) [compound 4491], the Ki was under 0.075 µM.
For `C=CCNC(=O)C(=O)C(CCCC)NC(=O)[C@@H]1[C@@H]2[C@H](CN1C(=O)[C@@H](NC(=O)N[C@H](C(=O)OC(C)(C)C)C(C)(C)C)C1(C)CCCCC1)C2(C)C` (stereo partly shown) [compound 4492], the inhibition constant Ki is under 0.075 µM.
`C=CCNC(=O)C(=O)C(CCC(F)(F)F)NC(=O)[C@@H]1[C@@H]2[C@H](CN1C(=O)[C@@H](NC(=O)N[C@H](C(=O)OC(C1CC1)C1CC1)C(C)C)C(C)(C)C)C2(C)C` (stereo partly shown) [compound 4493]: the Ki was under 0.075 µM.
In the case of `C=CCNC(=O)C(=O)C(CCC)NC(=O)[C@@H]1[C@@H]2[C@H](CN1C(=O)[C@@H](NC(=O)N[C@H](C(=O)OCc1ccc(OC)cc1)C(C)C)C(C)(C)C)C2(C)C` (stereo partly shown) [compound 4494], the inhibition constant Ki was under 0.075 µM.
Then `CNC(=O)C(=O)C(CCC(F)(F)F)NC(=O)[C@@H]1[C@@H]2[C@H](CN1C(=O)[C@@H](NC(=O)N[C@H](C(=O)OC1CCOC1)C(C)(C)C)C(C)(C)C)C2(C)C` (stereo partly shown) [compound 4495], with under 0.075 µM; and `CC(C)(C)[C@H](NC(=O)N[C@@H](C(=O)OCc1ccccc1)c1ccccc1)C(=O)N1C[C@H]2[C@@H]([C@H]1C(=O)NC(CC1CCC1)C(=O)C(N)=O)C2(C)C` (stereo partly shown) [compound 4496], with under 0.075 µM.

The record behind these values is patent US7423058B2, “Inhibitors of hepatitis C virus NS3 protease” (Schering Corporation, priority 2004, dated 2008).
